Reference: PubChem BioAssay AID651820 (National Center for Advancing Translational Sciences (NCATS), 2012)
Among all 340,000 compounds or so, about 12,000 (3.5%) were called active. Inconclusive results, whose numbers are uncertain, are shown with a selection of clear calls. Calls follow the shape of the dose curve; as a rule, active = well fitted inhibition curve with a large enough effect; inconclusive = small, poorly fitted or top-dose-only effect, or another doubt; inactive = no such curve, though single readings can be large or run the other way. Potencies of inconclusive entries are left out as doubtful fits.

Assay: qHTS Assay for Inhibitors of Hepatitis C Virus (HCV)
Conditions: Huh7.5.1 HCVcc-Cre (HCVcc is cell-culture hepatitis C virus) infection, luciferase reporter, 44 h; series mostly up to 41.8 µM
How it was run: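 Cells (1,000/well) were plated 4 h before compound, then infected with HCVcc-Cre virus (~0.5 moi). After 44 h further culture, infection was read as luciferase luminescence following a 15 min substrate incubation at room temperature.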
Potency is read from the fitted curve at half-maximal effect; tags tell the direction and shape of the fitted curve.

| Structure (SMILES) | Potency |
| --- | --- |
| CC(C)(C)NC(=O)C1CCN(c2ccc(S(=O)(=O)N3CCOCC3)cc2Cl)CC1 | inactive |
| Cc1cc(Sc2nnc(N)s2)c2ccccc2n1 | inconclusive [inhibitor, partial curve] |
| O=C1CSc2cc(Cl)ccc2N1 | inactive |
| c1ccc(CN2CCN(c3ncnc4c3[nH]c3ccccc34)CC2)cc1 | active: 11.2 µM |
| Cc1cc(-c2onc3ccc(Cl)cc23)ccc1O | inconclusive [inhibitor, partial curve] |
| Cc1cc(-n2c(C)cc(C(=O)COc3ccc(Cl)cc3C(N)=O)c2C)no1 | inconclusive [inhibitor, partial curve] |
| C#CCOCCOCCOCCNc1nc(N2CCN(C(=O)[C@H](CCCCN)n3cc([C@@H](N)CO)nn3)CC2)nc(N2CCN(C(=O)[C@H](CCCCN)n3cc([C@@H](N)CC(C)C)nn3)CC2)n1 | inactive |
| Cc1cc(OCCN2CCCC2)ccc1C(C)C | inconclusive [inhibitor, single point] |
| O=C(c1ccc(-n2cccn2)cc1)N1CCc2ccccc2C1 | inactive |
| CN1CCN(S(=O)(=O)c2cccc(C(=O)Nc3ccc(Br)cc3Br)c2)CC1 | inconclusive [inhibitor, single point] |
| C=CCN(CC=C)S(=O)(=O)c1ccc(NC(=S)NC(=O)c2ccc(-c3ccccc3)cc2)cc1 | inconclusive [inhibitor, single point] |
| COc1ccc([N+](=O)[O-])cc1NC1CCCCC1 | active: 11.2 µM |
| O=C(/C=C/c1cccc(F)c1)N1CCN(c2ncccn2)CC1 | inactive |
| Cc1ccccc1OCc1ccc(C(=O)N2CC(C)OC(C)C2)o1 (stereo unspecified) | inactive |
| CCCCCCN(CCCCCC)C(=O)Cc1c(-c2ccc(F)cc2)[nH]c2ccccc12 | inconclusive [inhibitor, single point] |
| CCOC(=O)c1c(C)n(C)c2ccc(OC)c(NC(=O)CN3CCN(C4CCCCC4)CC3)c12 | inactive |
| CCN(CC)CCNC(=O)c1ccc(NC(C)=O)cc1 | inactive |
| Fc1ccc(CN2CCN(C(=S)NCCc3ccccc3)CC2)c(Cl)c1 | inconclusive [inhibitor, partial curve, poor fit] |
| Cc1ccc(C)c(OCC(=O)N(Cc2ccccc2)c2c(N)n(Cc3ccccc3)c(=O)[nH]c2=O)c1 | inconclusive [inhibitor, full curve, poor fit] |
| O=c1nc(/C=C/c2cc([N+](=O)[O-])ccc2Cl)cc(C(F)(F)F)[nH]1 | inactive |
| COc1ccc(C(=O)N/C(=C\c2ccco2)C(=O)NC2CCS(=O)(=O)C2)cc1 (stereo unspecified) | inactive |
